# Measured values: PubChem BioAssay AID1460 (National Center for Advancing Translational Sciences (NCATS), 2008)
# Screen size: about 270,000 compounds; about 5,800 (2.1%) were called active. Inconclusive means that the source gave no clear call. Such entries were picked first, then a sample of the others. Calls follow the shape of the dose curve; as a rule, active = well fitted inhibition curve with a large enough effect; inconclusive = small, poorly fitted or top-dose-only effect; inactive = flat fitted curve, though single readings scatter. Potencies of inconclusive entries are doubtful fits and often do not repeat.
# Target: Microtubule-associated protein tau (Homo sapiens) (UniProt P10636)
# Test: qHTS for Inhibitors of Tau Fibril Formation, Thioflavin T Binding; also: nearly all actives have a fitted effect of over 55% in size
# Settings: recombinant tau K18 P301L (four-repeat tau fragment), heparin-induced fibrillization, ThT fluorescence; series mostly up to 57.4 µM
# Summary of the method: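 Heparin-induced (20 uM) aggregation of recombinant human K18 P301L tau, 15 uM unlabeled with 0.24 uM labeled, pH 7 acetate buffer, 6 hr at 37 C with compound. Fibrils quantified by 30 uM ThT fluorescence after 1 hr ambient incubation.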
# Potency is read from the fitted curve at half-maximal effect; tags tell the direction and shape of the fitted curve.
# Sequence of UniProt P10636 (P10636 whole entry, looked up): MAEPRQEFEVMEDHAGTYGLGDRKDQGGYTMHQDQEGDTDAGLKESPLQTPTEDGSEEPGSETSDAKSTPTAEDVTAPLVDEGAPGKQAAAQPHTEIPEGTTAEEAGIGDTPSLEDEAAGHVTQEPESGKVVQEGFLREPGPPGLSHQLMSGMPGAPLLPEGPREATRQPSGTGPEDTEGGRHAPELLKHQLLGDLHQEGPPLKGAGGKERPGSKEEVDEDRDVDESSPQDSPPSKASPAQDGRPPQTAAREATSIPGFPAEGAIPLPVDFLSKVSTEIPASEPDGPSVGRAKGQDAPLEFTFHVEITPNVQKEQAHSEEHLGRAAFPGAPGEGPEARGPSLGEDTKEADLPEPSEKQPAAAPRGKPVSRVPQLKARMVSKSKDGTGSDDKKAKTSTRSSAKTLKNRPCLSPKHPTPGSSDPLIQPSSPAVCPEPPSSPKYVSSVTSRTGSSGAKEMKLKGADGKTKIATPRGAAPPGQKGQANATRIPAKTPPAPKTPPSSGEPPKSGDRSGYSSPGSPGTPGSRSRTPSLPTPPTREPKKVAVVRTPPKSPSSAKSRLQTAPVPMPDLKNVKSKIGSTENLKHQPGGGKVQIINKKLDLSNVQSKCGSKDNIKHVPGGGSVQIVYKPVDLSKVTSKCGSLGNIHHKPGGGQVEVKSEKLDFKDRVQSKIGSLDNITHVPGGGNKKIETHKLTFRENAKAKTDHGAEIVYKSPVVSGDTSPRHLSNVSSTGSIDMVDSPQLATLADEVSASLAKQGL
row,Compound,Potency
1,COc1ccc(Nc2ncnc3sc(-c4ccccc4)cc23)cc1,"inconclusive: 3.98 µM [inhibitor, full curve]"
2,COC(=O)c1sccc1N/N=C/c1ccc(OC)c(OC)c1OC,"inconclusive: 15.8 µM [inhibitor, partial curve]"
3,Clc1cccc(-c2ccc(CNCCSc3nnnn3-c3ccccc3)o2)c1,inactive
4,O=C(Nc1ccc(N2CCN(C(=O)c3ccco3)CC2)cc1)c1ccc2c(c1)OCO2,"inconclusive: 1.41 µM [inhibitor, full curve]"
5,CCCCC(=O)Nc1sc2c(c1-c1nc3ccccc3s1)CCN(C(C)=O)C2,"inconclusive: 12.6 µM [inhibitor, partial curve]"
6,COc1cc(Cl)c(C)cc1NC(=O)C1CCN(c2nc3ccccc3n3cccc23)CC1,"inconclusive: 15.8 µM [inhibitor, partial curve]"
7,Cc1cc(-c2nc3c4c5c(sc4[nH]c(=O)n3n2)CCC5)c(C)o1,"inconclusive: 15.8 µM [inhibitor, partial curve]"
8,O=C(COC(=O)/C=C/c1ccco1)NCc1ccc2c(c1)OCO2,inactive
9,COc1ccc(OC)c(NS(=O)(=O)c2ccc3c(c2)C(C)(C)C(=O)N3C)c1,"inconclusive: 0.794 µM [inhibitor, full curve, poor fit]"
10,COC(=O)c1ccc(C(NC(=O)OCc2ccccc2)/C(I)=C/[C@@H](C)C(=O)Nc2ccccc2)cc1 (some centres not stated),"inconclusive: 28.2 µM [inhibitor, single point]"
11,CCc1nn2c(=O)cc(COC(=O)COc3ccc(OC)cc3)nc2s1,inactive
12,C#CC[N+](C)(C)CCCCCCCCCCCC,inactive
13,COc1ccc(-c2nc(C)c(CCNS(=O)(=O)c3cc(Cl)ccc3Cl)s2)cc1,"inconclusive: 22.4 µM [inhibitor, partial curve]"
14,O=C(CCSc1ccccc1)NC1CCCC1,inactive
15,COCc1nc(-c2ccc(-c3ccc(OC)cc3)nc2OC)no1,"inconclusive: 3.55 µM [inhibitor, full curve]"
16,CCc1nc2nc(C)c(NS(=O)(=O)c3ccc(C(C)(C)C)cc3)c(=O)n2[nH]1,inactive
17,Cc1cc(F)ccc1NCc1ccc([N+](=O)[O-])cc1,"inconclusive: 28.2 µM [inhibitor, single point]"
18,C=CCNC(=S)NNC(=O)c1cc(Cl)ccc1OC,inactive
19,COc1ccccc1C(=O)Nc1cccc(C(=O)OCc2cc(=O)n3cc(C)sc3n2)c1,"inconclusive: 1.78 µM [inhibitor, full curve]"
20,CCOC(=O)c1cccc(COC(=O)c2cccc(-c3nnc(-c4ccccc4)o3)c2)c1,"inconclusive: 5.62 µM [inhibitor, partial curve]"
21,COc1ccc(Nc2cc(Cl)nc(N)n2)cc1,"inconclusive: 17.8 µM [inhibitor, partial curve, poor fit]"
22,CCc1ccc(NCc2cc3c(C)nn(-c4ccccc4)c3[nH]c2=O)cc1,"inconclusive: 28.2 µM [inhibitor, partial curve]"
23,CCCc1cc(-c2[nH]ncc2-c2ccc(C(=O)OCC)o2)c(O)cc1O,inactive

row,Compound,Potency
1,CCc1cc(OCCCSc2nc(C)cc(=O)[nH]2)ccc1Cl,"inconclusive: 35.5 µM [inhibitor, partial curve]"
2,Cc1ccc(Nc2nc(CSc3nnnn3C)cs2)cc1,"inconclusive: 10 µM [inhibitor, partial curve]"
3,COc1ccc(C(=O)C2CCCN(Cc3sc(N4CCCC4)nc3Cl)C2)c(OC)c1 (configuration not stated),"inconclusive: 14.1 µM [inhibitor, partial curve, poor fit]"
4,COc1ccc(CNC(=O)Cn2c(=O)nc(-c3ccccc3)c3ccccc32)cc1OC,inactive
5,COc1cc(/C=N/Nc2ccc(C(F)(F)F)cn2)cc(OC)c1O,"inconclusive: 7.08 µM [inhibitor, partial curve]"
6,O=C(NCCC1=CCCCC1)c1ccc2c(c1)N(Cc1cccc(Cl)c1)C(=O)c1ccccc1S2=O (configuration not stated),inactive
7,Cc1cc(N)n(-c2ccc(S(=O)(=O)c3ccc(C(C)C)cc3)cc2)n1,inactive
8,Cc1ccc(S(=O)(=O)N(CC(=O)Nc2ccc3c(c2)OCO3)c2cc(Cl)cc(Cl)c2)cc1,inactive
9,Cc1cc(OCC(=O)Nc2ncn[nH]2)ccc1Cl,"inconclusive: 15.8 µM [inhibitor, partial curve]"
10,CC(=O)Nc1ccc(S(=O)(=O)Oc2cccc(/C=N/N=C3/NC(=O)C(CC(=O)O)S3)c2)cc1 (configuration not stated),inactive
11,O=C(N/N=C(/CC(=O)c1cccs1)C(F)(F)F)c1ccc(O)cc1,"inconclusive: 17.8 µM [inhibitor, partial curve]"
12,Cn1c(=O)oc2cc(S(=O)(=O)NCCC(=O)Nc3ccc(F)cc3F)ccc21,inactive
13,Nc1c(C(=O)O)ccc2c1C(=O)c1ccccc1C2=O,active: 10 µM
14,CC1CCc2nc3sc4c(c3c(N)c2C1)CCCC4 (configuration not stated),"inconclusive: 5.62 µM [inhibitor, partial curve]"
15,Cc1c(NC(=O)c2ccc(-c3cccc([N+](=O)[O-])c3)o2)cccc1-c1nc2cc(Cl)ccc2o1,"inconclusive: 2.51 µM [inhibitor, full curve]"
16,COc1ccc(-c2nn(-c3ccccc3)cc2C2CC(c3cccs3)=NN2C(=O)CCCC(=O)O)cc1 (configuration not stated),"inconclusive: 25.1 µM [inhibitor, single point]"
17,CC(=O)c1sc2nc(-c3cccs3)ccc2c1N,active: 15.8 µM
18,CC(=O)NS(=O)(=O)c1ccc(N=c2ssc3c2-c2cc(C)c(C)cc2NC3(C)C)cc1,"inconclusive: 39.8 µM [inhibitor, single point]"
19,Cc1ccc(C)c(N2CCN(C(=O)C3CCCN(S(=O)(=O)c4c(C)noc4C)C3)CC2)c1 (configuration not stated),"inconclusive: 20 µM [inhibitor, partial curve]"
20,Cn1cnc([N+](=O)[O-])c1Oc1cccc2ccccc12,"inconclusive: 11.2 µM [inhibitor, partial curve, poor fit]"
21,O=C1c2cc([N+](=O)[O-])cc3cc([N+](=O)[O-])cc(c23)C(=O)N1c1ccccn1,"inconclusive: 28.2 µM [inhibitor, partial curve]"
22,CC(=O)c1ccc(N2CCN(C(=O)C3CCCN(S(=O)(=O)c4ccc(Br)s4)C3)CC2)cc1 (configuration not stated),"inconclusive: 39.8 µM [inhibitor, single point]"
23,Clc1ccc(C2CC(c3ccco3)n3ncnc3N2)cc1Cl (configuration not stated),"inconclusive: 20 µM [inhibitor, single point]"

row,Compound,Potency
1,Cc1ccc(CN2CCN(/N=C/c3ccc(C(F)(F)F)cc3)CC2)c(C)c1,"inconclusive: 39.8 µM [inhibitor, single point]"
2,COc1ccc(CCNC(=S)NC(=O)c2c(-c3ccccc3Cl)noc2C)cc1OC,"inconclusive: 44.7 µM [inhibitor, single point]"
3,CCc1ccc(CNC(=O)c2nn(-c3ccc(C)cc3)c(=O)c3c2c2ccccc2n3C)cc1,inactive
4,CC(C)c1ccc(S(=O)(=O)c2ccc(NN)cc2)cc1,"inconclusive: 12.6 µM [inhibitor, partial curve]"
5,Cc1ccc(-c2c[n+](CC(=O)N3c4ccccc4Sc4ccccc43)c3n2CCC3)cc1,"inconclusive: 10 µM [inhibitor, partial curve, poor fit]"
6,CCN(C(=O)Cn1nnc2sc3c(c2c1=O)CCC(C(C)(C)C)C3)c1cccc(C)c1 (configuration not stated),inactive
7,Cc1c(N=C2NN=C(c3c[nH]c4ccccc34)CS2)c(=O)n(-c2ccccc2)n1C,"inconclusive: 25.1 µM [inhibitor, partial curve]"
8,Cc1nc2c(-c3ccc(F)cc3)c(C)nn2c(C)c1CCC(=O)N1CCN(c2ccccc2)CC1,"inconclusive: 31.6 µM [inhibitor, single point]"
9,COc1ccc(-c2ccc3c(N)c(C(=O)Nc4ccc(C(F)(F)F)cc4)sc3n2)cc1OC,"inconclusive: 7.08 µM [inhibitor, partial curve]"
10,COc1ccc(C(=O)Nc2ccc(C(=O)Nc3nccs3)cc2)cc1[N+](=O)[O-],"inconclusive: 0.501 µM [inhibitor, partial curve]"
11,C/C(=N/NC(=O)c1ccco1)c1ccc(NC(=O)c2ccc(F)cc2)cc1,"inconclusive: 2 µM [inhibitor, full curve]"
12,COc1ccc(C2C(C(C)=O)=C(O)C(=O)N2c2cccnc2)c(OC)c1 (configuration not stated),"inconclusive: 28.2 µM [inhibitor, partial curve]"
13,COc1cc(/C=N/NC(=O)CC#N)cc(Br)c1O,"inconclusive: 8.91 µM [inhibitor, partial curve]"
14,O=C(NCc1ccc2c(c1)OCO2)c1ccc(CSCc2cccc(Cl)c2)o1,"inconclusive: 31.6 µM [inhibitor, single point]"
15,CC(=O)Nc1ccc(/C=N/N2CCCCC2)cc1,inactive
16,O=C(O)CCCC(=O)Nc1ccc(OCc2nc3ccccc3s2)cc1,"inconclusive: 17.8 µM [inhibitor, single point]"
17,Cc1ccccc1-c1cc2c(nn1)-c1ccccc1C2=O,"inconclusive: 20 µM [inhibitor, partial curve, poor fit]"
18,CN1C(=O)/C(=C/c2cc(C(C)(C)C)c(O)c(C(C)(C)C)c2)NC1=S,inactive
19,COc1ccccc1C1CC(=O)Oc2cc(C)c(Cl)c(C)c21 (configuration not stated),"inconclusive: 35.5 µM [inhibitor, partial curve]"
20,CCn1c(SCC(=O)c2ccc(O)c(O)c2)nnc1-c1ccccc1,"inconclusive: 20 µM [inhibitor, single point]"
21,N#Cc1nc(-c2ccc(OCc3ccccc3)cc2)oc1NCCCN1CCOCC1,"inconclusive: 20 µM [inhibitor, partial curve]"
